Assay in all cases: mutation enrichment score (mutant vs wild-type peptide binding to bait); baits are purified protein domains named by gene / domain / UniProt id / residues; peptides come from disordered regions of human proteins; higher = mutation enhances binding relative to wild type
The target of experiment [1] is KPNA4_Arm__O00629_68_487. The note with it: wild-type window: ….
In experiment [2] the target is OXSR1___O95747_434_527. The note with it: number of wild-type / mutant comparisons summed (bounds the score): 6; paper call: no_effect; wild-type window: ….
Experiment [3] has as its target Keap1_KELCH__Q14145_321_609. Conditions: number of wild-type / mutant comparisons summed (bounds the score): 6; paper call: enhanced; wild-type window: ….
Experiment [4] concerns the target KPNB1_Heat_1_Q14974_127_876. Conditions: number of wild-type / mutant comparisons summed (bounds the score): 2; paper call: no_effect; wild-type window: ….
Experiment [5] has as its target T1, SIN3A_PAH__Q96ST3_295_383.
T1 chain: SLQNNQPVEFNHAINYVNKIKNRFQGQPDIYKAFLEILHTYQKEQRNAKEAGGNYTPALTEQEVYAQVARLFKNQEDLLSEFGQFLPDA
Conditions: number of wild-type / mutant comparisons summed (bounds the score): 5; paper call: no_effect; wild-type window: ….

Setting [6] is: number of wild-type / mutant comparisons summed (bounds the score): 9, paper call: no_effect.
[7] abbreviates: number of wild-type / mutant comparisons summed (bounds the score): 18, paper call: no_effect.

Mutation enrichment score data for 23 molecules are collected here from the supplement of paper PMC11369174, “Proteome-scale characterisation of motif-based interactome rewiring by disease mutations” (Molecular Systems Biology, 2024).

The list shows a part of the results. The data scatter; read single values as rough.

KPNA4_Arm__O00629_68_487, sequence (chain, as listed by the source): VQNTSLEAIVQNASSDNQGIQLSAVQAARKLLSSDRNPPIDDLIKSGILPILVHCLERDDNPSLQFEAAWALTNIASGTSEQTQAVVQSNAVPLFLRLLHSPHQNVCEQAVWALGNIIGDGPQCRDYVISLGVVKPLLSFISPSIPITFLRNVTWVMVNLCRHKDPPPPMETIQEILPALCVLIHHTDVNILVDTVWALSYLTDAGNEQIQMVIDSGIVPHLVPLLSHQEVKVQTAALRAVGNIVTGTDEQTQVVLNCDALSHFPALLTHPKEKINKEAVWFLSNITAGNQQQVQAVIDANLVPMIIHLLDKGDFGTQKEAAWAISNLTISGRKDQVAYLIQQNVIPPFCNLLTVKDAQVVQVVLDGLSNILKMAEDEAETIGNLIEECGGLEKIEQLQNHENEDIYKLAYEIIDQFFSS
KPNB1_Heat_1_Q14974_127_876, sequence (chain, as listed by the source): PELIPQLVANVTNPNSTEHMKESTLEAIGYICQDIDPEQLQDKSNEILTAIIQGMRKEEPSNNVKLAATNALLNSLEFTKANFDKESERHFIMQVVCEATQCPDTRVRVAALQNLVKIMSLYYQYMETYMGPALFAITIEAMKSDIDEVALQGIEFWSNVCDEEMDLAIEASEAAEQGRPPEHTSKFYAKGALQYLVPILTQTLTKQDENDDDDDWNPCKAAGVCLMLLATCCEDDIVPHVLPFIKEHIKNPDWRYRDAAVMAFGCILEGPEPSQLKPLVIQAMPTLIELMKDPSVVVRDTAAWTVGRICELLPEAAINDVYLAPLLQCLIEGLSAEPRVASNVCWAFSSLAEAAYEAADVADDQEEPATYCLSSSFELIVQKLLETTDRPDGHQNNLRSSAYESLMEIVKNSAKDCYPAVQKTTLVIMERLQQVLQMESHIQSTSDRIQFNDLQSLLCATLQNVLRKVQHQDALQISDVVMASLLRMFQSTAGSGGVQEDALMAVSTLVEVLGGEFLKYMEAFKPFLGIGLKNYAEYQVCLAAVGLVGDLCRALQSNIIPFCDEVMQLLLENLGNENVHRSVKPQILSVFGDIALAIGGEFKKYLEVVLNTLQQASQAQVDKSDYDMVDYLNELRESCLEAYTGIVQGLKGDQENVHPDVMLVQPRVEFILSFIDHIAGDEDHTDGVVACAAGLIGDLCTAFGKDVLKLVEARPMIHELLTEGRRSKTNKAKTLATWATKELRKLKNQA
Keap1_KELCH__Q14145_321_609, sequence (chain, as listed by the source): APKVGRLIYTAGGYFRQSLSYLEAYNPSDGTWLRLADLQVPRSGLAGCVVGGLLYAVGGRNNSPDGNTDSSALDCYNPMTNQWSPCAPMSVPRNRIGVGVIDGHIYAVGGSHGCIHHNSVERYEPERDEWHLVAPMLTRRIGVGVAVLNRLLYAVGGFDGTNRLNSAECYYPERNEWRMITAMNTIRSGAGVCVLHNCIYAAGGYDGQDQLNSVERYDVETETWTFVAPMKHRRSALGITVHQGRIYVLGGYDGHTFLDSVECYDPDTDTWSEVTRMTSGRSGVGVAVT

In the case of LGSTFVAYLPDYRMKEWSRRKAERLVKYREANGLPIMESNC [E121K E121K], in experiment [1] (setting [6]), the mutation enrichment score is -5.

Take EMNERLEDEEEMNAELTAKKHKLEDECSELKRDIDDLELTL [R941H R941H]: the mutation enrichment score in experiment [1] (setting [6]) is -4.

On to EMNERLEDEEEMNAELTAKKPKLEDECSELKRDIDDLELTL [R941P R941P], for which the mutation enrichment score in experiment [1] (setting [6]) was -4.

In the case of RLRVRLLKRTWPLEVPETEPMLGHLRSHLRQSLLCTWGYSS [T22M T22M], the mutation enrichment score in experiment [1] (setting [6]) was 3.1.

With SGSAMNVVFSEDEMKKFLEEVTRVSQEHPVVLTKFVEGARE [A1155V A1155V], the mutation enrichment score in experiment [1] (setting [6]) turned out to be 2.

On to KRQQMRQEALMKTDRRRRRPGEEVRALEAEREAIISEKRQK [R1945G R1945G], for which, in experiment [1] (setting [6]), the mutation enrichment score came to 2.

Take SQEAPSFQGTESPKPCKMPKTVDPLARGRAFRHPEEMDRPH [I186T I186T]: the mutation enrichment score in experiment [1] (number of wild-type / mutant comparisons summed (bounds the score): 18, paper call: diminished) was -5.

Take ESSLILKASEQGDSMLGDLLASDCTTGSGSGLPFLVQRTVA [D179A D179A]: the mutation enrichment score in experiment [1] (setting [6]) and in experiment [2] was 2 in each case.

As for AQLYQHQLNPTLLQQQNKRPCTRITDDQLRVLRQYFDINNS [R2149C R2149C], in experiment [1] (setting [6]), the mutation enrichment score is -1.

Consider AQLYQHQLNPTLLQQQNKRPHTRITDDQLRVLRQYFDINNS [R2149H R2149H], for which the mutation enrichment score in experiment [1] (setting [7]) is -1.

Turning to NALKGRVPPGDSPPGNGSGPQHINDSPFGTLPGSAEPPLTA [R377Q R377Q], the mutation enrichment score in experiment [1] (setting [6]) was found to be 0.

In the case of PQIPAERDREPSKLKRSYSSRDITQAIQEEEKRKPTVTPTV [P720R P720R], the mutation enrichment score in experiment [1] (setting [6]) was 2.

With RKRVAGDLPYGWEQETDENGEVFFVDHINKRTTYLDPRLAF [Q72E Q72E], the mutation enrichment score in experiment [3] came to 6.

Regarding APSFQGTESPKPCKMPKIVDLLARGRAFRHPEEMDRPHAPH [P189L P189L], in experiment [1] (setting [6]), the mutation enrichment score amounted to 4.

MPPAAPARLALALGLGLWLGQLAGGPGRGCGPC [L13Q L13Q]: the mutation enrichment score in experiment [1] (setting [6]) came out at 2.

Turning to KSLPEEDVAEIQHAEEFLIKRESKVAKLDTSQWPLLLKNFD [P40R P40R], the mutation enrichment score in experiment [1] (setting [7]) was -3.

Turning to GNIMRVIGEDGQSVYKLTDFAAARELEDDEQFVSLYGTEEY [G159A G159A], in experiment [4], the mutation enrichment score came out at 1.

With VPPSPTFSEPGMVGATEGTRSGLEELYWLATLQQQLGAGEA [P67S P67S], the results for the mutation enrichment score in experiment [1] (setting [6]) and in experiment [5] were 2 and -3.7, respectively.

For LRKFDELDAVMSRLPHHSESGQEHERISRIHEEFKKKKNDP [R500G R500G], the mutation enrichment score in experiment [1] (setting [6]) is -0.33.

As for QWASTRGGHKERPTVMLFPFGNLGSPTQVISKPESKEEHAI [R291G R291G], in experiment [1] (setting [6]), the mutation enrichment score was 2.

Turning to KNVGESVAAALSPLGIEVDINVEHGGKRSRLTPVSPESSST [D258N D258N], the mutation enrichment score in experiment [1] (setting [7]) is -2.1.

On to KSQPVSKPESRASTSTSVSGRRNTGARTLADIKARAQQARA [G1046R G1046R], for which, in experiment [1] (setting [7]), the mutation enrichment score stood at 0.

With MVAGMLGLREEKSEDQDLQGEKDKPLK [G7E G7E], in experiment [1] (setting [6]), the mutation enrichment score was 2.
